In paper PMC6919601, “Identification of Plasmodium dipeptidyl aminopeptidase allosteric inhibitors by high throughput screening” (PLoS ONE, 2019):
About 230 (0.21%) of roughly 110,000 compounds showed an effect of 50% or more. Some of the results follow.

Molecular target: DPAP1 (Plasmodium falciparum, UniProt Q8IIJ9)
Experiment: primary screen, percent inhibition; read by cleavage of a fluorogenic dipeptide substrate; higher = more effect of the substance
Design: species or system P. falciparum D10 trophozoite lysates; single well
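Note: 30 min substrate incubation versus DMSO and 10 µM JCP410 controls.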

Sequence of DPAP1 (Q8IIJ9 whole entry, looked up): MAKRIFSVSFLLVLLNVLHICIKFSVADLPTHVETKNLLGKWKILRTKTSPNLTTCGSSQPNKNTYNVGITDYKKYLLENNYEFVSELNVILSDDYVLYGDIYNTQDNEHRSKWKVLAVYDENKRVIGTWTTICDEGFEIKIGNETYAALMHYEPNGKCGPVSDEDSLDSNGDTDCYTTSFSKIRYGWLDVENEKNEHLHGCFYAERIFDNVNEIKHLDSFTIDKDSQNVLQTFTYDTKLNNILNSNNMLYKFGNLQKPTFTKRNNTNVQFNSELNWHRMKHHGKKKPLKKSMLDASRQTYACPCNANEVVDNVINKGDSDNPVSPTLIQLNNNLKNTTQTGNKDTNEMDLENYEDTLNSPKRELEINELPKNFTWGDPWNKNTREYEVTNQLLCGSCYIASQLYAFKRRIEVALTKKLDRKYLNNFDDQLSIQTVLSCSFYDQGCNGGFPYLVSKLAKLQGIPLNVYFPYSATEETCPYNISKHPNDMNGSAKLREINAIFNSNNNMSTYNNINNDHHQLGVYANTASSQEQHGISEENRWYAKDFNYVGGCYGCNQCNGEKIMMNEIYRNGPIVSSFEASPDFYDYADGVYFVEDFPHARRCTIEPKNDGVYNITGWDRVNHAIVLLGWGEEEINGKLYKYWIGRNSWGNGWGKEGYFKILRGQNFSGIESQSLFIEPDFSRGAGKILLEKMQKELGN

| SMILES | % Inhibition @ 10 uM [%] |
| --- | --- |
| CC(=O)NC1=NN(C(C)=O)C(C)(CCS(=O)(=O)c2ccc(Cl)c(Cl)c2)S1 (stereo not shown) | -13 |
| CCOc1ccc(OCC)c(C(=O)c2nc3c(n2O)CCCC3)c1 | 0.0539 |
| CN1CCN(Cc2cccs2)CC1 | 2.33 |
| CCOc1ccc(C2CC(=O)NC3=C2C(=O)CC(C)(C)C3)cc1Cl (stereo not shown) | -7.98 |
| O=c1oc2ccc(NS(=O)(=O)c3ccc(Br)cc3)cc2s1 | 1.76 |
| CCOC(=O)N1CCC(NC(=O)c2cc3c(C)nccc3nc2O)CC1 | 2.35 |
| O=C(CSc1nnnn1-c1ccc(C(=O)O)cc1)NC1CCCCC1 | -0.386 |
| Cc1ccc2onc(CNC(=O)N(C)C3CCCCC3)c2c1 | -1.97 |
| CCCCN(CCNC(=O)Nc1cn(CC(C)C)c(=O)c2ccccc12)Cc1ccco1 | 1.74 |
| Cc1ccc(-n2cc3c(c2-c2ccc(Cl)cc2)c(=O)n(C)c(=O)n3C)cc1 | -3.12 |
| CCOc1ccc(/N=C2\SC(C(=O)Nc3cccc(OCC)c3)CC(=O)N2C)cc1 (stereo not shown) | -6.77 |
| COCc1[nH]nc2c1C(c1ccc(OCc3ccccc3)c(OC)c1)C(C#N)=C(N)O2 (stereo not shown) | 6.24 |
| COc1ccc(-c2csc(/C(C#N)=C\Nc3cccc(F)c3)n2)cc1 | -1.44 |
| COCCNC(=O)c1cc2c(-c3cccc(OC)c3)nn(C)c2s1 | 6.08 |
| COc1cc2c(cc1OC)C(c1ccc(Cl)cc1)N(C(C)=O)CC2 (stereo not shown) | 0.605 |
| Cc1ccnc(SC2CC(=O)N(c3ccc4ccccc4c3)C2=O)n1 (stereo not shown) | -1.64 |
| CCOC(=O)N1CCN(Cc2cc(=O)oc3cc(C)ccc23)CC1 | -3.49 |
| CCc1nn(-c2cc(Oc3ccccc3)nc(C)n2)c(N)c1C(N)=O | 3.56 |
| Cc1ccc(S(=O)(=O)N(CC(=O)NC2CC3CCC2C3)c2ccc(Br)cc2)cc1 (stereo not shown) | 4.25 |
| CC1=NC(C(F)(F)F)(C(F)(F)F)C2=C(CC(C)(C)CC2=O)N1Cc1ccco1 | 3.54 |
| N#CCNC(=O)C(Cc1c(Cl)cccc1Cl)NC(=O)OCc1ccccc1 (stereo not shown) | 1.42 |
| Cc1c(NC(=O)c2ccccc2)cccc1[N+](=O)[O-] | -4.04 |
| O=S(=O)(c1ccccc1)N1CCN(Cc2ccccc2)CC1 | -1.07 |
| Cc1ccc(CNC(=O)C2CCC(CNS(=O)(=O)c3cccs3)CC2)cc1 (stereo not shown) | -0.668 |
| Cc1cc(OCC(=O)Nc2nccs2)c(C(C)C)cc1Br | 1.94 |

| SMILES | % Inhibition @ 10 uM [%] |
| --- | --- |
| CCCCCn1c(CN2CCN(Cc3ccccc3)CC2)nc2c1c(=O)n(C)c(=O)n2C | 0.317 |
| CN1CCCCC/C1=N\CCCn1cnc2c1c(=O)[nH]c(=O)n2C | -5.28 |
| CSc1ccc(C2c3c(-c4ccccc4O)n[nH]c3C(=O)N2Cc2ccco2)cc1 (stereo not shown) | -3.12 |
| O=C(CCSc1ccccc1)NC1CC2CCC1C2 (stereo not shown) | 4.83 |
| COc1ccc(C2CC(c3ccc(Br)cc3)=NN2c2ccccc2F)cc1 (stereo not shown) | -1.29 |
| CCOC(=O)c1ccc2nc(NC(=O)C34CC5CC(CC(C5)C3)C4)sc2c1 | 3.34 |
| O=C(NCc1nc2ccccc2[nH]1)c1ccccc1 | 0.0345 |
| O=C(O)c1ccccc1NS(=O)(=O)c1cccc2cccnc12 | -3.46 |
| CC(c1ccccc1C(O)(c1ccccc1)C(F)(F)F)N(C)C (stereo not shown) | -1.5 |
| CN1CCN(C(=O)CSc2c(O)nc3ccc(Cl)cc3c2-c2ccccc2)CC1 | -1.61 |
| O=C(c1ccco1)c1cn(CCOc2ccccc2F)c2ccccc12 | -5 |
| Clc1cccc(N2CCN(C3CCN(Cc4ccccc4)CC3)CC2)c1 | 1.57 |
| COc1cc(/C=N\n2nnnc2N)cc(OC)c1OC | 6.11 |
| COc1cc(OC)c(CN2CCN(c3cccc(C(F)(F)F)c3)CC2)cc1Br | -0.192 |
| Cc1ccc(OCC(=O)Nc2ccc3ccccc3c2)c(C)c1 | -0.95 |
| COc1ccc(C2C(C#N)=C(N)Oc3ccc4ccccc4c32)cc1 (stereo not shown) | -0.99 |
| Oc1ccc(NCc2ccc(Br)cc2)cc1 | 4.67 |
| Cc1ccc(S(=O)(=O)C2(C(=O)NCCc3ccccc3)CC2)cc1 | 6.28 |
| CCCCCCCC1NC(=O)NC(C)=C1C(=O)OCC (stereo not shown) | 2.65 |
| COc1ccccc1C1CC(=O)NC(SCC(=O)Nc2ccc(Br)cc2)=C1C#N (stereo not shown) | -5.96 |
| CN(C)CCNC(=O)c1cc(Sc2cccc(Cl)c2)nc2ccccc12 | -2.26 |
| CCCN(CCC)C(=O)Cn1c(=O)sc2ccccc21 | -7.93 |
| CCC[C@H](NC(=O)C1(NC(=O)c2cc3cc(OC)ccc3o2)CCCCC1)C(=O)c1nc2ccccc2o1 | -6.46 |
| O=C(Nc1nc2n(n1)C(c1ccccc1)C=C(c1ccccc1)N2)c1ccco1 (stereo not shown) | 4.18 |
| COc1cc(/C=C2\C(=N)N3N=C(S(C)(=O)=O)SC3=NC2=O)ccc1OCc1ccccc1C | -7.21 |

| SMILES | % Inhibition @ 10 uM [%] |
| --- | --- |
| Oc1cc(Cc2nc3ccccc3[nH]2)nn1-c1ccccc1 | 15.2 |
| CCOC(=O)N1CCN(c2nc3ccccc3n3nnnc23)CC1 | -0.735 |
| Cc1ccc2c(CNC3CC3)c(C(=O)O)n(Cc3ccccc3C)c2c1 | -2.56 |
| CNC(=O)C1CCCN(c2nnc(C)c3c(C)n(-c4ccc(Cl)cc4)nc23)C1 (stereo not shown) | -2.68 |
| COc1cc(C2=N/C(=C\c3ccc(Cl)cc3Cl)C(=O)O2)cc(OC)c1OC | 1.3 |
| COc1ccc(/C=C(\NC(=O)c2ccccc2)C(=O)NCC2CCCO2)cc1 (stereo not shown) | -0.615 |
| CCCC[C@H](NC(=O)C(Cc1c(F)cccc1F)NC(=O)c1ccc(-c2ccccc2Cl)cc1)C(=O)c1nnc(-c2ccccc2)o1 (stereo partly shown) | -8.81 |
| COc1ccc(CC(=O)Nc2cc(C)cc(C)c2)cc1 | -4.91 |
| O=C(Nc1cccc2ccccc12)c1cc(F)c(Cl)nc1Cl | -3.34 |
| CC1=C(c2ccc(C)cc2)S(=O)(=O)N=C1N1CCCC(C)C1 (stereo not shown) | 0.0882 |
| N#Cc1c(N)nc2c(c1-c1ccccc1)CCCC2 | -1.98 |
| CC(=O)Nc1ccc(S(=O)(=O)N(C)C2CCCCC2)cc1 | 2.46 |
| COc1ccc(CN2COc3c(cc4c(C)c(C)c(=O)oc4c3C)C2)cc1OC | -2.57 |
| CCN(CC)CCN(C)Cc1ccccc1F | -2.34 |
| COc1ccc(-c2oc3ncn4nc(-c5ccco5)nc4c3c2-c2ccc(OC)cc2)cc1 | -1.6 |
| CCCCn1cnc2sc3c(c2c1=N)CCCC3 | 17.2 |
| COc1cccc(/C=c2/sc3nc(=O)c(Cc4ccc(F)cc4)nn3c2=O)c1OC | 2.9 |
| O=C(NCCCCc1ccccc1)c1ccc(Br)cc1 | -3.03 |
| CCCSc1ncc(Cl)c(C(=O)NCc2ccccc2)n1 | -1.11 |
| COc1ccc(CC(=O)N2CCC(c3ccccc3)C2)cc1 (stereo not shown) | -6.69 |
| N#CC1=C(N)Oc2[nH]nc(-c3ccccn3)c2C12C(=O)Nc1ccccc12 (stereo not shown) | -6.58 |
| CCOC(=O)N1CCC(NC(=O)CN(C)S(=O)(=O)c2ccc3nc(C)sc3c2)CC1 | -5.89 |
| C1=C(c2ccccc2)n2ncnc2NC1c1ccccc1 (stereo not shown) | -3.86 |
| COc1ccccc1OCC(=O)Nc1sc(Cc2ccccc2)c(C)c1C(N)=O | -1.6 |
| CCCN1C/C(=C\c2ccc(N(C)C)cc2)C2=NN(C(C)=O)C(c3ccc(N(C)C)cc3)C2C1 (stereo not shown) | 10.3 |

| SMILES | % Inhibition @ 10 uM [%] |
| --- | --- |
| c1cncc(-c2nnc3n2CCCCC3)c1 | 11.6 |
| CC(O)c1nc2ccccc2n1C (stereo not shown) | 4.3 |
| O=C(c1cc(-c2ccc(O)cc2)on1)N1CCOCC1 | 5.1 |
| COc1ccc(Br)cc1CNCC1CCCO1 (stereo not shown) | 0.389 |
| COc1ccc(-n2nnc(-c3nc(-c4cccnc4)no3)c2N)cc1OC | 5.71 |
| CC(Oc1ccc(Cl)cc1Cl)C(=O)N1CCN(C)CC1 (stereo not shown) | -2.15 |
| O=C(NCCCO)/C(=C/c1ccccc1)NC(=O)c1cccc(Br)c1 | -4.49 |
| Sc1nnc2n(-c3ccccc3)c3ccccc3n12 | -2.29 |
| Cc1ccc(S(=O)(=O)N2CCCC(C(=O)NCCc3ccccc3C)C2)cc1 (stereo not shown) | -4.67 |
| O=C(Nc1ccc(Oc2ccccc2)cc1)c1cccnc1 | -3.72 |
| COc1ccc(OCc2ccc(C(=O)Nc3cccc(C(=O)O)c3)cc2)cc1 | 3.01 |
| COc1ccccc1NC(=O)CN(C)S(=O)(=O)c1ccc(OC)c(OC)c1 | 3.53 |
| O=C(NCc1ccc(Cl)cc1)C(=O)Nc1ccccc1 | 4.54 |
| CN1CCN(c2nc3c(N)ncn(CC(O)CO)c-3n2)CC1 (stereo not shown) | 4.57 |
| CC(NC(=O)c1cc2oc3ccccc3c2n1C)c1ccc2c(c1)OCCO2 (stereo not shown) | -0.447 |
| CCCN1C/C(=C\c2cccc(OC)c2OC)C(=O)/C(=C/c2cccc(OC)c2OC)C1 | 5.02 |
| Cn1c(=O)c2ncnnc2n(C)c1=O | 9.1 |
| Cc1cc(OCC(O)CN2CCN(Cc3ccc4c(c3)OCO4)CC2)cc(C)c1Cl (stereo not shown) | -5.35 |
| Brc1ccc(CN2CCN(C/C=C/c3ccccc3)CC2)o1 | -1.98 |
| Brc1csc(CN2CCN(Cc3ccc4c(c3)OCO4)CC2)c1 | -4.35 |
| CCn1c(SCC(=O)Nc2cccc(Br)c2)nc2c1c(=O)n(C)c(=O)n2C | -1.64 |
| CCC(NC(=O)[C@@H](C[C@H](C)c1ccccc1)NC(=O)c1ccc(-c2ccccc2Cl)cc1)C(=O)c1nnc(-c2ccccc2)o1 (stereo partly shown) | -5.2 |
| COc1ccc(NC(=O)CN(c2cccc(F)c2)S(C)(=O)=O)c(OC)c1 | 3.75 |
| N#Cc1c(NC(=O)CCC(=O)O)sc2c1CCCCC2 | 7.1 |
| CCN(CC)CCNc1nc2c(c(=O)n(C)c(=O)n2C)n1CC(O)COc1cccc(C)c1 (stereo not shown) | -2.91 |
